Test results as given in the supplement of paper PMC4466236.
In all, about 33,000 sequences were measured (“E-score (dimensionless, -0.5 to 0.5)”: median about -0.058, highest 2% from about 0.35 on). This is one part of the list.

Test system: MvaT
Assay: PBM 8-mer E-score (mean of HK and ME arrays) (E-score (dimensionless, -0.5 to 0.5)); higher = stronger relative binding preference; most listed sequences are background and not binding sites
How it was run: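 Reported values are rank-based E-scores, taken as the mean of two universal arrays and parsed with a custom script. Each 8-mer score falls between -0.5 and 0.5. The arrays, ME and HK, were double-stranded 60-mers with a constant 25-mer primer region and a variable 35-mer region covering all 8-mers. They were probed, by an earlier protocol, with full-length P. aeruginosa MvaT carrying an N-terminal glutathione S-transferase fusion.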

Sequence	PBM 8-mer E-score
GTCAGGCA	-0.0612
CCCCAGTA	-0.117
GTCTTAAC	-0.0766
CAATTTAC	0.248
CCGGGAGA	-0.0673
CCAAGAGC	-0.245
ATAGGCTC	-0.0589
CCGAAACG	-0.204
CGTAGTGC	-0.0989
CCGTGGTC	-0.0848
GGAAGCCA	-0.171
CCGCACCA	-0.157
CCGAGCAA	-0.0238
CAGATAGA	-0.0253
GATATGCC	-0.00116
CGAGAACA	0.0484
GCTGTTTA	0.126
GATCCACA	0.0197
AAATTCCG	0.108
TGCCGGAA	-0.154
CCTCTCCA	-0.226
CAGAATGC	-0.132
AGCCGGTC	-0.159
GACGACTA	-0.0594
ACACTATC	0.122

Sequence	PBM 8-mer E-score
TCACACCA	-0.0842
CATAATTC	0.223
ACGAGTCA	-0.233
AAATGTAC	0.14
CGTCTTCA	-0.038
ACGGGTGA	-0.00679
GCCCACGC	-0.276
TAAACTAA	0.34
CGAAGAAA	0.176
AGTGATCC	-0.21
CGTTCCAG	-0.203
TACAGAGA	0.0639
AATGCCCA	0.0229
GCAACTGC	-0.142
CCAGAGAA	0.0167
ACTTGGGG	-0.109
CAAAAAAC	0.216
GACAAACC	0.176
ACAATAAG	0.276
ATCTCGGC	-0.0787
GCCCATTA	-0.0164
ACAGTTCC	-0.0657
AATGTACG	0.125
AAGACAAT	0.209
CCTTCTAC	-0.13

Sequence	PBM 8-mer E-score
AGTATAGA	0.0904
CGCGGCCG	-0.113
GTGCTTCA	-0.0014
ACGCCCCA	-0.193
CTTCTTGC	-0.121
CGGCGGAC	-0.209
GGGAAGCA	-0.128
CGCCAGCC	-0.184
ACACTGGC	-0.145
ATCAATCG	-0.0693
AGGCACCC	-0.204
CCGGGCAC	-0.137
CAGCAACA	0.137
CGATGGTC	-0.364
CATAATGA	0.233
GGGCCCGA	-0.201
ATTCGGAG	-0.0203
CCTTGTAG	-0.168
ATCGACTG	-0.11
TATTTACA	0.374
CTCCCCCC	-0.333
AGCTCTTC	-0.208
GAAGTCAC	-0.139
CTCTCAAG	-0.193
ATTGTGCA	0.169

Sequence	PBM 8-mer E-score
CGGGAGCC	-0.233
CCTGTCCG	-0.203
ACCCAAAG	-0.101
GTGTAGCA	-0.00783
CCTGCTTC	-0.157
CATATGCA	0.164
GGAAGGCC	-0.328
GTGCAAAC	0.0651
TACGAAGA	0.1
AGCTTACT	-0.0495
CGTCAACA	-0.0821
AGCTTAGA	-0.0268
AGGTGATA	0.0933
CAAGAGTG	-0.0498
CACCCGGG	-0.296
CCAGAAAG	-0.0666
AAGGCAGC	-0.077
ACATATTG	0.281
GCTTACCC	-0.187
ATATTTCG	0.345
AAGTATGC	0.248
AAACGGGC	0.0523
TCACTCAA	0.0781
ATGCCGTC	-0.093
GCTTAATA	0.352

Sequence	PBM 8-mer E-score
CATTCGAA	0.0613
ATGGTCTG	-0.169
GATGGGAC	-0.226
GATGTAAC	0.126
ATTCGTTG	0.0414
AATTTGTC	0.183
ATGCTCTA	-0.124
TATAAGAA	0.369
CGGGTGAG	-0.162
TCCGACAA	-0.00754
CCTGCCAC	-0.0789
CTTTTCGC	0.114
TCAAAACA	0.149
ACTAGATG	-0.0453
CGGTGTCA	-0.0698
GAATGAAA	0.168
CTTATAAG	0.394
AACGGGTG	-0.155
ACCCGCTG	-0.0997
CCCCGGCG	-0.31
CTCCGACC	-0.298
AACACTCC	0.0305
AAAGCTCC	-0.295
ATCCGCAA	0.0457
AACGTAGA	-0.0778

Sequence	PBM 8-mer E-score
CTCTTGCC	-0.227
CAACTCCG	-0.00993
AGCTAAGC	-0.138
TACGCTCA	-0.149
CAGGGAAG	-0.284
CGGAGAAC	-0.221
TGGCGAAA	0.0983
TAGCACAA	0.0731
CTTCAATA	0.244
GTGATAAA	0.211
GCGTCCAA	-0.139
AGTCACAG	-0.131
CCCCCGCA	-0.166
CAGAAAGG	-0.16
TTACGCAA	0.167
AACAGTGA	-0.025
GTACAGTA	0.0682
CAATACCC	0.102
TCCGAAGA	-0.0726
CGCAATAG	0.111
CGATGGCA	-0.11
ACCGACGG	-0.163
AACGCATA	0.142
CTGTGTTC	-0.0932
CGATGATA	0.0601

Sequence	PBM 8-mer E-score
CAGGGTCC	-0.336
CAGATTAC	0.117
ACGATGTA	-0.0246
ACAGTGGA	0.0474
CGAGCGTA	-0.121
CATAGCTC	-0.149
AACTCGAG	0.0357
GAAGGGAA	-0.147
CTTAATAC	0.286
ACCTCTCC	-0.143
AAAGATCG	-0.0318
CGTCTCAG	-0.227
TAAGACTA	0.104
GAGAATCC	-0.189
GAATTTGA	0.118
ATTAACAC	0.328
CTTTGGTA	0.0478
GCCCACCA	-0.231
CCCAAGCG	-0.301
AACTTGTA	0.283
CTTAAAGA	0.073
CATAACAG	0.111
AGGAACGG	-0.278
AAGAACCC	-0.093
GAGTGTCA	-0.078

Sequence	PBM 8-mer E-score
AGAGTGCA	-0.0217
TAGACGAA	-0.11
ATTTACCC	0.21
GGAGTGTA	0.042
ACCATAAA	0.173
CCCAATAC	0.0452
ACAGGGAA	-0.0133
AGCCCAGC	-0.255
AATTGTAA	0.305
GGAGCTAC	-0.24
AGAGTCTG	-0.103
ACGCTCGC	-0.127
AGCTAATC	-0.0533
TAGCCAGA	-0.246
GTCCACGA	-0.105
TGTTACAA	0.257
GTACTCGA	-0.105
GAGATCTA	-0.0145
CATATGAA	0.164
ACTACAGT	0.0853
CAAGCCTG	-0.209
ATGTTGCC	0.083
GCGTTCAC	-0.167
GAGTCTGA	-0.111
CATAGACA	0.175

Sequence	PBM 8-mer E-score
ATTTGTAC	0.314
TCATGTAA	0.119
AAATGCGT	0.187
AGCGGCCC	-0.355
AAGATTAA	0.317
GAAACCTA	-0.0639
GACCCTTA	0.0184
CATTCCTC	0.0102
ATGCTTAA	0.221
CATCACGC	-0.13
AAGCTACA	-0.0278
TCCCGCCA	-0.186
GGCTTATA	0.122
ACCGAGTA	-0.0513
TATTGCGA	0.206
CTGGTATA	0.162
ATATATTG	0.446
GAGCTGAA	-0.321
ATTGGGCG	-0.0684
